Out of some 310,000 compounds screened, about 14,000 (4.5%) showed an effect of 50% or more. The effect is printed as a negative number. The list shows a part of the results.
These compounds were tested against human ether-à-go-go-related gene (hERG) potassium channel (human, UniProt Q12809) (assay: primary screen, population patch clamp on CHO cells stably expressing hERG).
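Further: peak tail current of the secondary pulse compared with the same well before compound.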

Sequence of human ether-à-go-go-related gene (hERG) potassium channel (Q12809 whole entry, looked up): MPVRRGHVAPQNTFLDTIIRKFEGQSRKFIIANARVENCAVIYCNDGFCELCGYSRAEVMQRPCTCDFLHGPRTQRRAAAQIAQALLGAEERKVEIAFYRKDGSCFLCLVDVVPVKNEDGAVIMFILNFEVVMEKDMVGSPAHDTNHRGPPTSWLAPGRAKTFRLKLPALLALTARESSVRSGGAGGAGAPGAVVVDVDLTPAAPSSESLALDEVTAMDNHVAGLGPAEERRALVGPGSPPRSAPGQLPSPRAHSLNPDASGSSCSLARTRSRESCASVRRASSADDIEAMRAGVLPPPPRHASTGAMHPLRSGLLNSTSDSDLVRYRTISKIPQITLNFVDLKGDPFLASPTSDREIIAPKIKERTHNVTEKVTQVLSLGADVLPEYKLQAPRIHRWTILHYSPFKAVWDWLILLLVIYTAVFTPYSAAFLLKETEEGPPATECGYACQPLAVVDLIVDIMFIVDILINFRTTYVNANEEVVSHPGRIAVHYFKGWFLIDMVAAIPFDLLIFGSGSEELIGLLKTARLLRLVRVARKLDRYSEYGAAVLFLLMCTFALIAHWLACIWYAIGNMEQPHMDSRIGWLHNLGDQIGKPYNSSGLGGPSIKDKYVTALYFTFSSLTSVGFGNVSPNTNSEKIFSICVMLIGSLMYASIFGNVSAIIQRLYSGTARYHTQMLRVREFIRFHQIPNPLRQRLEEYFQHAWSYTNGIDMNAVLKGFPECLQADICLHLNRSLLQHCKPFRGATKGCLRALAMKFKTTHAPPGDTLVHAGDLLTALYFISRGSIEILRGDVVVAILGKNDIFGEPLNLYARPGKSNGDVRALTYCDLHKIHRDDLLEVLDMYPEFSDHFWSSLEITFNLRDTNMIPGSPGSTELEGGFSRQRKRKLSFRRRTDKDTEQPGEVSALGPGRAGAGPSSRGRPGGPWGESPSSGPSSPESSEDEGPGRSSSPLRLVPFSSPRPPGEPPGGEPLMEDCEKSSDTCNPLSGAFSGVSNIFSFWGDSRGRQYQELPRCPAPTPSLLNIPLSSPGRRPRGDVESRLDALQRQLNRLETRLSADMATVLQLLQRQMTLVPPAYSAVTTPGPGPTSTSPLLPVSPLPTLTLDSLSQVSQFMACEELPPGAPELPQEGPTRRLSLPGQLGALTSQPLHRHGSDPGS

Point of comparison: `CC1CC(Nc2ccccc2)c2ccccc2N1C(=O)c1ccncc1` (stereo not shown), “hERG current change (%, negative = inhibition) at 10uM” value 5.73%. Against it:
- COc1cc2[nH]c(=O)n(CCC(=O)NCc3cccnc3)c(=O)c2cc1OC — lower, 2.55%
- O=C(COC(=O)/C=C/c1ccccc1)Nc1ccccc1Br — lower, -10.7%
- CN1CCCN(C(=O)CSc2ccccc2)CC1 — higher, 7.75%
- COc1cc(/C=N/NC(=O)C(=O)N2CCCCCC2)ccc1O — higher, 7.51%
- NNc1nnc2c3cc(F)ccc3n(Cc3ccccc3)c2n1 — lower, -22.4%
- Cn1nc(-c2ccc(Cl)cc2)c2cc(C(=O)N3CCCC3)sc21 — lower, -1.15%
- C[N+]1(CC(=O)Nc2ccc(F)cc2)CCN(C(=O)c2ccco2)CC1.[Cl-] — higher, 13.2%
- CCN(CC(=O)Nc1c(F)cccc1F)C(=O)c1ccc(-c2ccccc2)cc1 — lower, -22.9%
- O=C(CSc1nnc(-c2ccc(C(F)(F)F)cn2)s1)c1ccc(Cl)cc1 — lower, 5.3%
- CCc1ccc(NC(=O)N(CCOC)C2CCN(C(C)=O)CC2)cc1 — lower, -31.2%
- O=c1c2ccccc2nc(/C=C/c2ccc(O)cc2)n1-c1cccc(O)c1 — higher, 12.9%
- CC(OC(=O)c1cc(S(=O)(=O)N2CCOCC2)ccc1F)C(=O)NCc1ccc2c(c1)OCO2 (stereo not shown) — lower, -24.7%
- Cc1ccc(C(=O)N2CC(C(=O)O)C2)cc1 — higher, 11.3%
- CC(C)CCNC(=O)[C@@H](NC(=O)c1c(F)cccc1F)C(C)C — lower, 0.718%
- O=[N+]([O-])c1ccc(O)c2ncccc12 — higher, 9.28%
- COc1ccc(-n2nnc3c(=O)n(CC(=O)N4CCC(Cc5ccccc5)CC4)cnc32)cc1 — higher, 13.8%
- COC(=O)c1cnc(Oc2ccc(NC(=O)NC(=O)c3c(F)cccc3F)cc2)cc1C(F)(F)F — higher, 9.34%
- COc1ccc(-n2c(C)cc(-c3csc(N)n3)c2C)cc1 — lower, -15.2%
- O=C(NCc1ccco1)c1ccc(-c2ccccc2Cl)o1 — lower, -30.6%
- COC(=O)N/N=C\c1ccc(OC/C=C/c2ccccc2)c(OC)c1 — higher, 6.04%
- Cc1ccc(S(=O)(=O)NCCSc2nnc(N)s2)cc1 — lower, 0.194%
- CCN(CC(=O)NCc1cccs1)C(=O)COc1ccc(C(C)=O)cc1 — lower, -45.1%
- Nc1c(N=Nc2cccc(Cl)c2)c(=O)[nH]n1-c1ccccc1 — lower, -2.35%
- COc1ccc(C(=O)Nc2c(N)nc(SCC(=O)N3CCCCCC3)[nH]c2=O)cc1OC — lower, 0.918%
- N#C/C(=N\Nc1cccc(Cl)c1)C(=O)c1ccccc1 — lower, -11.2%
- O=C(NN1CCOCC1)c1cccc2ccccc12 — lower, 1.68%
- CCCc1ccc2oc(C(=O)N3CCC(O)CC3)c(C)c2c1 — lower, -12.2%
- COc1ccc(C(=O)C(O)C(c2ccc(C)cc2)N2CCOCC2)cc1OC (stereo not shown) — higher, 8.95%
- COC(=O)c1cc(C(=O)NCC2CCCCC2)cc([N+](=O)[O-])c1 — lower, -18.2%
- COc1cc2[nH]c(=O)n(CCC(=O)N3CC=C(c4ccccc4)CC3)c(=O)c2cc1OC — lower, -1%
- COc1ccc(OC)c(C(C)NS(=O)(=O)c2cccs2)c1 (stereo not shown) — lower, -7.95%
- COC(=O)c1c(C(=O)c2ccc(Br)cc2)n(C)c2ccccc12 — lower, 5.52%
- CSc1ccc(CN(C)C(=O)COc2ccc(C(=O)c3ccccc3)cc2)cc1 — lower, 2.28%
- Cn1cc(S(=O)(=O)Nc2ccc(F)c(Cl)c2)c(=O)n(C)c1=O — higher, 9.4%
- CNC(=S)/N=C(\Nc1ccc(C)cc1)c1ccccc1 — higher, 13.1%
- CC(=O)Nc1ccc(/C=N/NC(=O)c2cccs2)cc1 — higher, 6.45%
- Cc1cccc(NC(=O)CN2CCN(CC(=O)Nc3ccc(-c4ccccc4)cc3)CC2)c1C — lower, -17%
- CCOC(=O)Cc1nnc(NC(=O)CSc2ccc(Cl)cc2)s1 — lower, 2.74%
- O=C(Nc1nnc(CCc2ccccc2)s1)c1ccccc1 — higher, 12.5%
- CC(C)CC(=O)N/C(N)=N/c1nc2ccccc2s1 — lower, -16%
- COc1ccc(NC(=O)N2CCCc3cccc(C)c32)cc1 — lower, -8.83%
- CN1CC(=O)N(CC(=O)Nc2cc(Cl)cc(Cl)c2)C1=O — lower, 4.4%
- CN(Cc1ccccc1)C(=O)CCC(=O)N(C)Cc1ccccc1 — lower, 2.28%
- O=C1C2C3C=CC(O3)C2C(=O)N1CC(O)c1ccccc1 (stereo not shown) — lower, 1.77%
- Cc1ccc(NC(=S)Nc2ccccn2)c(C)c1 — lower, -0.823%
- Cc1ccc(S(=O)(=O)N2CCCCC2)cc1C(=O)OC1CCCCC1=O (stereo not shown) — lower, -14.7%
- C/C(Cl)=C/CC1(CN2CCCC2=O)C(=O)NC(=O)NC1=O — higher, 15.4%
- CC(C)(C)NCC(O)COCc1ccc(Cl)cc1.Cl (stereo not shown) — lower, -24.6%
- CCN(Cc1ccccc1)C(=O)Cn1cc2c(n1)CCCC2 — lower, 0.356%
- Cc1cccc(N/N=C(\C#N)S(=O)(=O)C(C)(C)C)c1 — lower, 5.62%
- [Cl-].[NH3+]CCCn1c(C(=O)c2ccc(Cl)cc2)c2ccc(C(F)(F)F)cc2[n+]1[O-] — lower, -79.2%
- CCOC(=O)C1CCN(C(c2cccnc2)c2c(NC(=O)c3ccco3)sc(C)c2C)CC1 (stereo not shown) — lower, -19.1%
- O=C(NCc1ccc2c(c1)OCO2)c1ccc(Br)o1 — higher, 7.09%
- CCc1nc2scc(-c3cccs3)c2c(=O)o1 — lower, 5.12%
- O=C(CSc1nccc(=O)[nH]1)Nc1ccc2c(c1)OCCO2 — higher, 51.6%
- CCOc1ccccc1NC(=O)CSc1nc2cc(O)ccc2c(=O)n1-c1ccc(OC)c(OC)c1 — higher, 9.24%
- CC(=O)Nc1ccc(NS(=O)(=O)c2ccc(-c3cnc(C4CC4)o3)cc2)cc1 — lower, 3.37%
- CN(CC(=O)Nc1cccc(S(=O)(=O)N2CCCC2)c1)CC(=O)Nc1ccc(Cl)c(C(F)(F)F)c1 — lower, -22.4%
- CCOC(=O)C1CCN(S(=O)(=O)c2ccc3c(c2)CCN3C(=O)C2CCC2)CC1 — higher, 14.1%
- CCOC(=O)C1CCN(C(C(=O)Nc2ccc3c(c2)OCCO3)c2ccccc2)CC1 (stereo not shown) — lower, -14.4%
- Cc1cc(N2CCCC(C(=O)Nc3cccc4ccccc34)C2)n2ncnc2n1 (stereo not shown) — lower, -61.9%
- COc1ccccc1OCC(O)Cn1c(Br)nc2c1c(=O)[nH]c(=O)n2C (stereo not shown) — lower, -9.6%
- NS(=O)(=O)c1ccc(NC(=O)COC(=O)C2CCCCC2)cc1 — lower, -7.3%
- COc1ccc(OC)c(-n2c(SC)nnc2-c2c[nH]c3ccccc23)c1 — lower, -2.95%
- O=c1cc(CSc2ccc(S(=O)(=O)N3CCCCC3)cn2)nc2sccn12 — lower, -18.6%
- Cc1ccc(-c2nc3cccnc3o2)cc1NC(=O)COc1ccc(C(C)(C)C)cc1 — higher, 7.05%
- COc1ccc(-n2c(O)c(C=NCCN(C)C)c(=O)[nH]c2=O)cc1 — lower, -1.34%
- CCN1C(=O)C2(C(C(=O)c3ccc(C)o3)=C(O)C(=O)N2CCCN2CCOCC2)c2ccccc21 (stereo not shown) — lower, 0.0517%
- O=C(COC(=O)c1c[nH]c2ccccc12)NC1CCCCC1 — lower, -0.35%
- COc1cc(OC)c(C(=O)OC(C)C(=O)Nc2cccc(C(F)(F)F)c2)cc1OC (stereo not shown) — lower, -1.96%
- Cc1ccc(NC(=O)Cn2c3ccc(F)cc3c3nc4n(c(=O)c32)CCS4)cc1F — higher, 8.3%
- CCOC(=O)C1CCN(C(=O)c2ccccc2NS(=O)(=O)c2ccc(F)cc2)CC1 — lower, -12.8%
- COc1ccc(C(=O)N/C(=C/c2cccnc2)C(=O)N2CCN(C)CC2)cc1OC — higher, 11.4%
- CN(Cc1nc2ccccc2c(=O)[nH]1)Cc1cc(=O)oc2ccc3ccccc3c12 — lower, -10.1%
- Cc1ccc(-c2cn(CCN)c(-c3ccc(Cl)nc3)n2)cc1 — lower, -21.7%
- O=C(COC(=O)CCC(=O)Nc1nccs1)NCc1ccco1 — higher, 5.94%
- COC(=O)/C=C(\C)NC(=O)c1cccs1 — lower, -4.27%
- O=C(/C=C/c1ccc(Cl)c(Cl)c1)NC1=NCCS1 — higher, 35.8%
- CCOc1cc(CNC2CCCC2)cc(Cl)c1OCc1ccc(F)cc1.Cl — lower, -17.6%
- Cc1ccc(CNC(=O)Cn2cnc3cc([N+](=O)[O-])ccc3c2=O)cc1 — lower, -30.2%
- O=C(COc1ccc(Cl)cc1Cl)N1CCCCCC1 — lower, -13.6%
- c1cc(C2OCCN2CC2COC3(CCCC3)O2)ccn1 (stereo not shown) — higher, 18.4%
- CCOC(=O)[C@H](CCc1ccccc1)N[C@@H](C)C(=O)N1CCC[C@@H]1C(=O)O.O=C(O)/C=C\C(=O)O — higher, 6.13%
- Cc1nn(C)c(C)c1NS(=O)(=O)c1ccccc1 — higher, 7.92%
- CC1(C)Oc2ccc(NC(=O)C3COc4ccccc4O3)cc2O1 (stereo not shown) — lower, -12.3%
- O=C(COC(=O)c1ccc([N+](=O)[O-])o1)Nc1cccc(S(=O)(=O)N2CCOCC2)c1 — lower, -19.4%
- CCC1CCCCN1C(=O)COc1ccccc1NC(C)=O (stereo not shown) — higher, 29.6%

Source: publication PMC4336329 (PLoS ONE, 2015)
